Source: PubChem BioAssay AID504339 (National Center for Advancing Translational Sciences (NCATS), 2011)
About 17,000 (4.4%) of roughly 390,000 compounds were called active. Inconclusive means that the source gave no clear call. Such entries were picked first, then a sample of the others. The call rests on the fitted dose curve; in most records, active means well fitted inhibition curve with a large enough effect; inconclusive means small, poorly fitted or top-dose-only effect; inactive means no such curve, though single readings can be large or run the other way. Potencies beside an inconclusive call are fits to weak or partial responses and may not hold up.

target: Lysine-specific demethylase 4A (Homo sapiens) (UniProt O75164); experiment: qHTS Assay for Inhibitors of JMJD2A-Tudor Domain; settings: AlphaScreen JMJD2A-Tudor / H3K4me3 peptide binding; activity change, negative = inhibition: at 114 µM (top of the series); further: nearly all actives have a fitted effect of over 50% in size
On the % scale 0 is the no-effect control and ±100 the full control effect; potency means the concentration at half of the fitted maximal effect; tags describe the fitted curve by direction and shape.

UniProt O75164, sequence (O75164 whole entry, looked up, the tested form may be a part): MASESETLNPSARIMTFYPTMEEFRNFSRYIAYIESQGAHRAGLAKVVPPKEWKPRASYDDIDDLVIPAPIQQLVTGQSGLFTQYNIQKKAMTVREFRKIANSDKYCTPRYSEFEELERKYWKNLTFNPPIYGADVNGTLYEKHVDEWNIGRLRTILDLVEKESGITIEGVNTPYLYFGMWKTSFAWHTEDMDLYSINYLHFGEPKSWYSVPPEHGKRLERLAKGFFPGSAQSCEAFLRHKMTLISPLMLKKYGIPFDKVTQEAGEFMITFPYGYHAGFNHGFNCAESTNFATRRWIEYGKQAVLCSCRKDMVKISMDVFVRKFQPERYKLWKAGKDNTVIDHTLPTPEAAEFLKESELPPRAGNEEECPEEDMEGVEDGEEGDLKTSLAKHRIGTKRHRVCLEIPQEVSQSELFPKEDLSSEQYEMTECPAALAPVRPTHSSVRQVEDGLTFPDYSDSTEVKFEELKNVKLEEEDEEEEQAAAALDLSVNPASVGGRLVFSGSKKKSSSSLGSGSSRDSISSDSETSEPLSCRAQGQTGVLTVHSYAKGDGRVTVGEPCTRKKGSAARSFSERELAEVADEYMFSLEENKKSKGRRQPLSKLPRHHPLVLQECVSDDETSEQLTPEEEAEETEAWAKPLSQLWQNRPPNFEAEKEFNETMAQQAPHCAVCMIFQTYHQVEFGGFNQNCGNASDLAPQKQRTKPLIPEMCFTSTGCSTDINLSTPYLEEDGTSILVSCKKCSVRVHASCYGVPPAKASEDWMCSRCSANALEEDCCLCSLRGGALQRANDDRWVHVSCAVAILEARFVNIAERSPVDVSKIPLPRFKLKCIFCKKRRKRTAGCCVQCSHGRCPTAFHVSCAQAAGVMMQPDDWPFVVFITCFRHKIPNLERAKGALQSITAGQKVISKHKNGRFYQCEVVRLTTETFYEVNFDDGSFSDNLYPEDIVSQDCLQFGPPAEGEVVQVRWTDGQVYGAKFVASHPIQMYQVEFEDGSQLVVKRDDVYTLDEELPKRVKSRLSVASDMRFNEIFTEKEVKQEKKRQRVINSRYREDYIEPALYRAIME

Compound | Potency | activity change, negative = inhibition
CCOc1cc(C(=O)OCC(=O)NCc2ccco2)cc(OCC)c1OCC | active: 56.2 µM | –
CCCOc1ccc(C(=O)Nc2ccc(NC(=O)c3ccccc3)c(Br)c2)cc1 | – | inactive: -7.84%
O=C(ONC(=O)C1C2C=CC(C2)C1C(=O)NOC(=O)c1ccccc1)c1ccccc1 (stereo not drawn) | active: 0.794 µM | –
CN1CCN(C(=S)NC(=O)/C=C/c2cccc3ccccc23)CC1 | inconclusive: 79.4 µM [inhibitor, partial curve] | –
O=C(Nc1nnc2n1CCS2)c1ccco1 | active: 1.58 µM | –
CCOC(=O)C(O)(NC(=O)c1cccnc1)C(F)(F)F (stereo not drawn) | – | inactive: 8.23%
COc1ccc(C2c3[nH]c4ccccc4c3CCN2C(=O)c2ccccc2C(C)=O)c(F)c1 (stereo not drawn) | inconclusive: 50.1 µM [inhibitor, partial curve] | –
CN1CCN(c2nc3c(c(=O)n(C)c(=O)n3C)n2CCSc2nnnn2-c2ccccc2)CC1 | inconclusive: 10 µM [inhibitor, partial curve, poor fit] | –
CC(=O)Nc1ccc(Nc2nc(C)c([N+](=O)[O-])c(Nc3ccccc3)n2)cc1 | – | inactive: -15.2%
Cc1ccc(C(OCC(O)CNC(CO)C(O)c2ccc([N+](=O)[O-])cc2)c2ccccc2)cc1 (stereo not drawn) | active: 39.8 µM | –
O=S(=O)(c1ccc(Cl)cc1)c1nc(-c2ccccc2F)oc1NCCN1CCOCC1 | inconclusive: 79.4 µM [inhibitor, partial curve] | –
C#CC[N+](C)(C)CCN1C(=O)C2C(c3ccccc3)C=CC(c3ccccc3)C2C1=O (stereo not drawn) | inconclusive: 20 µM [inhibitor, full curve, poor fit] | –
N#Cc1ccc(COC(=O)c2ccc3c(=O)[nH]c(CN4CCOCC4)nc3c2)cc1 | inconclusive: 17.8 µM [inhibitor, partial curve] | –
C(=N\Nc1ccccn1)/c1c[nH]c2ccccc12 | inconclusive: 44.7 µM [inhibitor, partial curve] | –
COc1ccc(OC)c(-n2c(-c3ccccc3)n[nH]c2=S)c1 | active: 3.16 µM | –
Fc1cccc(Cn2cc(C(=S)N3CCOCC3)c3ccccc32)c1 | inconclusive: 28.2 µM [inhibitor, single point] | –
COCCN1C2=C(C(=O)CC(C)(C)C2)C(c2ccc(OC)c(OC)c2)C2=C1CC(C)(C)CC2=O | – | inactive: 3.5%
CCN(CC(=O)Nc1ccccc1OC)C(=O)c1ccc2[nH]c3c(c2c1)CC(C)CC3 (stereo not drawn) | inconclusive: 28.2 µM [inhibitor, partial curve] | –
CCN1CCS/C1=C/C=C/C1=[N+](CC)CCS1 | inconclusive: 35.5 µM [inhibitor, single point] | –
CC(=O)NC(Cc1ccc(C)cc1)C(=O)NC1CCN(C(=O)NCc2ccccc2)CC1 (stereo not drawn) | – | inactive: -8.77%
Clc1ccc(OCCn2cnc3ccccc32)cc1 | inconclusive: 6.31 µM [inhibitor, single point] | –
Cc1cccc(OCc2ccc(-c3nc(C#N)c(NCc4cccnc4)o3)o2)c1 | inconclusive: 35.5 µM [inhibitor, partial curve] | –
COc1cc(C(=O)N(CCc2ccccc2)C2CC3CCC(C2)N3C)cc(OC)c1OC (stereo not drawn) | inconclusive: 89.1 µM [inhibitor, single point] | –
CCCn1nc(C(=O)NNC(=O)c2cccc(C)c2)c2ccccc2c1=O | – | inactive: -2.05%

Compound | Potency | activity change, negative = inhibition
CCn1c(=S)[nH]c2c(=O)n(C)c(=O)n(C)c21 | active: 5.01 µM | –
COc1ccccc1N1CCN(C(c2ccc(Cl)cc2)c2nnnn2C(C)(C)C)CC1 (stereo not drawn) | inconclusive: 56.2 µM [inhibitor, partial curve] | –
O=S(=O)(c1ccc(F)cc1F)N1CCN(CCO)CC1 | – | inactive: -17.4%
CN(C)/C=C1\SC(=S)N(c2ccc(Br)cc2)C1=O | inconclusive: 63.1 µM [inhibitor, partial curve] | –
N#C/C(=C(/O)CCl)c1nnc2n1CCCCC2 | active: 20 µM | –
CCc1ccc(NC(=O)CCCc2nnc3n(CC(C)C)c(=O)c4sccc4n23)cc1 | – | inactive: -19.4%
c1ccc(CNC2=NCCCCC2)cc1 | – | inactive: -4.4%
CCCOc1cccc(C2c3c(oc4ccccc4c3=O)C(=O)N2c2nncs2)c1 (stereo not drawn) | – | inactive: -18.2%
Cc1ccc(-c2nc(CS(=O)CC(=O)N3CCN(c4cccc(Cl)c4)CC3)c(C)o2)cc1 (stereo not drawn) | inconclusive: 50.1 µM [inhibitor, partial curve] | –
COc1cccc(C(=O)c2cn(CC(=O)NCc3ccccc3Cl)c3nc(C)ccc3c2=O)c1 | – | inactive: -28.6%
Cc1ccc2nc(N(CCCN(C)C)C(=O)c3ccc4c(c3)CCCC4)sc2c1 | inconclusive: 39.8 µM [inhibitor, partial curve] | –
O=c1c(Cl)c(Cl)cnn1-c1ccccc1 | – | inactive: 13.4%
S=c1[nH]nc(-c2ccccn2)n1/N=C/c1ccc(-c2ccccc2Cl)o1 | active: 28.2 µM | –
Cc1ccc(NC(=O)C(=O)NCC2CCN(C(=O)c3cccc([N+](=O)[O-])c3)CC2)cc1 | inconclusive: 39.8 µM [inhibitor, partial curve] | –
CCOc1ccc(CCNC(=O)CSc2nc3ncc(Cl)cc3[nH]2)cc1OCC | inconclusive: 35.5 µM [inhibitor, partial curve] | –
Cc1cc(C)c(S(=O)(=O)c2cccc(C(F)(F)F)c2)c(=O)[nH]1 | – | inactive: 7.32%
O=C(CN1CCN(CC(=O)Nc2ccccc2C(F)(F)F)CC1)Nc1ccccc1F | – | inactive: -9.43%
O=C(NCCc1ccccn1)/C(=C/c1ccco1)NC(=O)c1ccccc1 | – | inactive: -22.5%
Cc1ccc(NC(=O)c2ccc(N3CCOCC3)c([N+](=O)[O-])c2)cc1S(=O)(=O)N1CCOCC1 | inconclusive: 15.8 µM [inhibitor, full curve] | –
COc1ccccc1OCc1ccc(C(=O)NCC2CCCO2)o1 (stereo not drawn) | inconclusive: 35.5 µM [inhibitor, partial curve] | –
CN(C)/C=C/C=C1C(=O)CCCC1=O | inconclusive: 70.8 µM [inhibitor, partial curve, poor fit] | –
CCCn1c(NCc2ccc(N(CC)CC)cc2)nc2ccccc21 | active: 39.8 µM | –
CCOC(=O)C1CCN(C(=O)CN2c3ccc(CC)cc3-c3ccccc3S2(=O)=O)CC1 | – | inactive: -22.5%
COC(=O)c1c(C)nc(C)c(C(=O)OC)c1-c1ccc(OC)c(OC)c1 | – | inactive: -10.4%
